Measurements: PubChem BioAssay AID504332 (National Center for Advancing Translational Sciences (NCATS), 2011)
The whole screen tested about 350,000 compounds, of which about 31,000 (8.9%) were called active. The inconclusive results got no clear call from the source; some entries with a clear call stand among them for comparison. Calls come from the whole dose curve; as a rule, active = well fitted inhibition curve with a large enough effect; inconclusive = small, poorly fitted or top-dose-only effect; inactive = no such curve, though single readings can be large or run the other way. Where the call is inconclusive, the potency comes from a doubtful curve fit.
% is set by controls: 0 for no effect and ±100 for the full control effect; potency is the fitted concentration of half-maximal effect; tags give direction and shape of the fitted curve.
Note: nearly all actives have a fitted effect of over 75% in size.

What follows are compounds tested against Histone-lysine N-methyltransferase EHMT2 (Homo sapiens) (UniProt Q96KQ7) (assay: qHTS Assay for Inhibitors of Histone Lysine Methyltransferase G9a). Conditions: G9a H3K9 monomethylation, AlphaScreen, 2 h; activity, negative = inhibition: at 59 µM (top of the series) unless noted.
Chain of UniProt Q96KQ7 (Q96KQ7 whole entry, looked up): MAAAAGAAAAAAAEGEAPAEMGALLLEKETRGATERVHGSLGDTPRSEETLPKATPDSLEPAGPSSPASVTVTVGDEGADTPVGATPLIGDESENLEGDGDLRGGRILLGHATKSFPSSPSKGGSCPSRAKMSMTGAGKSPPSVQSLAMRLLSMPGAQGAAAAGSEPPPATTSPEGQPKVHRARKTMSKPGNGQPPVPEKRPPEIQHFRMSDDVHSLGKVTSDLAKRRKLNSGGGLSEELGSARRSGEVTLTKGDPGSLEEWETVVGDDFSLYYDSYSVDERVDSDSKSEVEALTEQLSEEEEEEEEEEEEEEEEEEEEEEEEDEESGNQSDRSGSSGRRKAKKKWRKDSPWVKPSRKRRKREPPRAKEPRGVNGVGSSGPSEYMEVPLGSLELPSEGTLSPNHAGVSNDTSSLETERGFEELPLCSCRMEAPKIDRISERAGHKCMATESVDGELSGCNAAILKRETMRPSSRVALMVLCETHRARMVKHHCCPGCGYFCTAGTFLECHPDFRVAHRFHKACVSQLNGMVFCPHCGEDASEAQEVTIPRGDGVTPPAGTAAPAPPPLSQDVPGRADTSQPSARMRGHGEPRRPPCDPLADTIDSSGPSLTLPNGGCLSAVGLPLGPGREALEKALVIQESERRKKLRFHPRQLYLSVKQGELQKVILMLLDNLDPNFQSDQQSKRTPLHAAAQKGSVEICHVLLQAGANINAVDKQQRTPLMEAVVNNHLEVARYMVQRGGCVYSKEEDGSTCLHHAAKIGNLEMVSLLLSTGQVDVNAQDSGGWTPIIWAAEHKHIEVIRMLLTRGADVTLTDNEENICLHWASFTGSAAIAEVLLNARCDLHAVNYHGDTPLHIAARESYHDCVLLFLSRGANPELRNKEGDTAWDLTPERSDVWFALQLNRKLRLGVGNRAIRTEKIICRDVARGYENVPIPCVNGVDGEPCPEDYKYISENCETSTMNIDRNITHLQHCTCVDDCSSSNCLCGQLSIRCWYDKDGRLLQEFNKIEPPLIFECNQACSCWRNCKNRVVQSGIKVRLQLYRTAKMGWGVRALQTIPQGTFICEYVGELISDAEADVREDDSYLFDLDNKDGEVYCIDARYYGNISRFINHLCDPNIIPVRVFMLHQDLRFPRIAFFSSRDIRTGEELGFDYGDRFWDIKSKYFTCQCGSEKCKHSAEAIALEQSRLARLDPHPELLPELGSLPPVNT
In short: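 Compounds were preincubated with 20 nM G9a for 15 min, after which biotinylated H3K9 peptide (500 nM) and SAM (20 uM) started a 2 h room-temperature reaction. Monomethylated product was quantified by antibody-based AlphaScreen chemiluminescence.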
In the case of `Cc1nn(CC(=O)NNC(=O)c2ccccc2F)c([N+](=O)[O-])c1Br`, the “activity, negative = inhibition” value is reported as inactive: 8.01% [at 102 µM].
`O=C(CSc1nc2cc(Cl)ccc2s1)NC(=O)NCc1ccco1` was tested, and the “activity, negative = inhibition” value was inactive: -4.7%.
In the case of `C(=N\n1cnnc1SCc1ccccc1)/c1ccco1`, the Potency is reported as active: 56.2 µM.
For `COc1ccc(Nc2nc(N)c(C(=O)c3ccc(F)cc3)s2)cc1`, the Potency was inconclusive: 79.4 µM [inhibitor, single point].
With `CCc1nccn1CCC(=O)N1CCCC(N2CCN(c3cccc(Cl)c3)CC2)C1` (stereo not drawn) the “activity, negative = inhibition” value was inactive: 28.1% [at 102 µM].
In the case of `COc1ccc2nc(SCC(N)=O)cc(C)c2c1`, the Potency is reported as inconclusive: 79.4 µM [inhibitor, single point].
With `CC1CC(C)CN(C(=O)CSC2=Nc3ccccc3C3=NC(Cc4c[nH]c5ccccc45)C(=O)N23)C1` (stereo not drawn) the Potency was inconclusive: 0.631 µM [inhibitor, partial curve, poor fit].
`CCOc1ccc(S(=O)(=O)Nc2cccc(C(=O)N(C)CC(=O)Nc3cccc(OC)c3)c2)cc1` was tested, and the activity, negative = inhibition was inactive: 6.28% [at 0.501 µM].
`COc1cccc(-c2nnc(SCC(=O)NCc3ccc4c(c3)OCO4)n2Cc2ccco2)c1` was tested, and the Potency was active: 44.7 µM.
In the case of `O=S(=O)(Cc1ccccc1)N1CCc2ccccc21`, the Potency is reported as inconclusive: 12.6 µM [inhibitor, partial curve].
With `CSCCC1NC2(C(=O)Nc3c2ccc(Cl)c3C)[C@@H]2C(=O)N(C3CCCC3)C(=O)[C@H]12` (stereo partly drawn) the Potency was inconclusive: 0.794 µM [inhibitor, partial curve, poor fit].
`Nc1cc(C(=O)OCC(=O)N2CCC(Cc3ccccc3)CC2)ccc1Cl` was tested, and the activity, negative = inhibition was inactive: 11.3% [at 12.7 µM].
For `Cc1oc(/N=C/c2ccccc2)c(C#N)c1C`, the Potency was inconclusive: 70.8 µM [inhibitor, single point].
In the case of `Cc1ccc(S(=O)(=O)N2CCOCC2)cc1C(=O)OCC(=O)c1ccc(Br)cc1`, the Potency is reported as inconclusive: 15.8 µM [inhibitor, single point].
For `CCOc1ccc2[nH]c(=O)c(CN(CCO)Cc3nnnn3CCc3ccccc3)cc2c1`, the Potency was inconclusive: 89.1 µM [inhibitor, single point].
For `CC(SCc1ccccc1)C(=O)Nc1ccc(F)cc1` (stereo not drawn), the Potency was inconclusive: 89.1 µM [inhibitor, single point].
`Cc1ccc(Cl)cc1NC(=O)C1CCCCC1C(=O)O` (stereo not drawn) was tested, and the Potency was inconclusive: 79.4 µM [inhibitor, partial curve, poor fit].
`Cc1cc(C)cc(NC(=O)NCc2nnc(SCc3ccccc3)n2C)c1` was tested, and the Potency was inconclusive: 31.6 µM [inhibitor, single point].
`CCc1cccc2c1NC1(CCCC1)CC2C` (stereo not drawn) was tested, and the Potency was inconclusive: 25.1 µM [inhibitor, single point].
`CCc1ccccc1NC(=O)c1ccc2c(O)c(S(=O)(=O)c3ccccc3)c(=O)[nH]c2c1` was tested, and the Potency was active: 15.8 µM.
`CC(=O)C1=C(c2ccccc2)OC(N)=C(C#N)C1c1ccccc1C` (stereo not drawn) was tested, and the Potency was inconclusive: 11.2 µM [inhibitor, partial curve].
In the case of `O=C(CCl)c1cc2c3c(c1)CC(=O)N3CCC2`, the Potency is reported as active: 50.1 µM.
`C=C1CCN([C@@H](C)C(=O)NCCCCCC)S(=O)(=O)c2ccccc21` was tested, and the activity, negative = inhibition was inactive: 35.1% [at 12.7 µM].
`O=C(O)COc1ccccc1C1C2C(=O)N(c3ccccc3)C(=O)C2ON1c1ccccc1` (stereo not drawn) was tested, and the activity, negative = inhibition was inconclusive: -78.7% [inhibitor].
`COc1cccc(CN2C(=O)C(C)N(C(=O)c3c(F)cccc3F)c3ccccc32)c1` (stereo not drawn) was tested, and the Potency was inconclusive: 0.891 µM [inhibitor, partial curve, poor fit].
In the case of `O=C(c1ccc(Cn2cc(Cl)cn2)cc1)N1CCN(c2ccccc2)CC1`, the Potency is reported as inconclusive: 28.2 µM [inhibitor, single point].
With `NC(=S)N=Nc1c(O)n(CCCl)c2ccccc12` the “activity, negative = inhibition” value was inactive: -19% [at 102 µM].
`Fc1cccc(Cl)c1-c1nnc2ccc3ccccc3n12` was tested, and the Potency was active: 31.6 µM.
With `COC(=O)c1ccccc1NC(=O)Cc1nc(-c2ccccc2)sc1-c1ccc(C)cc1` the Potency was active: 44.7 µM.
In the case of `Cc1cc(C)c(NC(=O)Cn2nnc(C(=O)NCc3ccc4c(c3)OCO4)c2N)c(C)c1`, the “activity, negative = inhibition” value is reported as inactive: 17.4%.
For `Cc1ccc(C(=O)n2c(-c3ccccc3)cnc2SCC(=O)Nc2ccccc2)cc1`, the Potency was inconclusive: 39.8 µM [inhibitor, single point].
With `O=c1cc(N2CCN(c3ccccc3)CC2)[nH]c(=O)n1C1CCCCC1` the “activity, negative = inhibition” value was inactive: 3.17% [at 102 µM].
In the case of `CN1Cc2c(N3CCOCC3)nc(SCc3ccccc3)c(C#N)c2CC1(C)C`, the Potency is reported as inconclusive: 44.7 µM [inhibitor, partial curve].
For `COc1ccc(N2CC(C(=O)Nc3cccc(OC(C)C)c3)CC2=O)cc1` (stereo not drawn), the “activity, negative = inhibition” value was inactive: 22.6% [at 102 µM].
For `N=c1c2c(n(Cc3ccc([N+](=O)[O-])cc3)c3c1CCC3)CCCC2`, the Potency was inconclusive: 35.5 µM [inhibitor, partial curve].
`CCN1CCN(C(C)CCc2ccccc2)CC1` (stereo not drawn) was tested, and the Potency was inconclusive: 0.708 µM [inhibitor, full curve].
`COc1ccc(S(=O)(=O)N(C)CC(=O)N2CCN(c3ccc(F)cc3)CC2)cc1OC` was tested, and the activity, negative = inhibition was inconclusive: -54.3% [inhibitor].
`CC(C)(C)NCC(O)COc1cccc2c1CCC(=O)N2` (stereo not drawn) was tested, and the activity, negative = inhibition was inactive: 2.73% [at 12.7 µM].
`Cc1cc(C(=O)NC2CCCN(Cc3ccc(Cl)cc3)C2)n(C)n1` (stereo not drawn) was tested, and the Potency was inconclusive: 20 µM [inhibitor, partial curve].
For `COC(=O)c1ccc(Nc2nnc(-c3ccc(C)c(S(=O)(=O)N4CCN(C)CC4)c3)c3ccccc23)cc1`, the Potency was inconclusive: 14.1 µM [inhibitor, partial curve].
In the case of `CN(C)c1ccc(Nc2nc(-c3cccnc3)cs2)cc1`, the Potency is reported as inconclusive: 0.631 µM [inhibitor, full curve, poor fit].
`COc1ccc(-n2ncc3c(NCc4ccc5c(c4)OCO5)ncnc32)cc1` was tested, and the Potency was inconclusive: 11.2 µM [inhibitor, partial curve, poor fit].
For `COc1ccc(-c2cc(OC(=O)c3ccc(Cl)cc3)c3c(C)oc(C)c3c(=O)c2)cc1`, the Potency was inconclusive: 25.1 µM [inhibitor, single point].
`COc1cc(C2C(C(=O)Nc3ccccc3OC)=C(C)Nc3ncnn32)ccc1O` (stereo not drawn) was tested, and the Potency was inconclusive: 89.1 µM [inhibitor, single point].
For `Cc1ccc(C)c(OCC(=O)Nc2ccc(N3CCOCC3)cc2)c1`, the Potency was active: 31.6 µM.
With `NS(=O)(=O)c1ccc(CCNC(=O)CCNS(=O)(=O)c2ccccc2C(F)(F)F)cc1` the activity, negative = inhibition was inactive: 3.42% [at 2.33 µM].
With `CC1=NN(c2ccccc2)C(=O)/C1=C\c1sccc1C` the activity, negative = inhibition was inconclusive: -84.5% [inhibitor] [at 12.7 µM].
`COC(=O)c1ccccc1CSc1nsc(/C=C/N(C)C)c1C#N` was tested, and the activity, negative = inhibition was inactive: -0.328% [at 2.33 µM].
For `CCOC(=O)c1c(NCCN(C)C)c2ccccc2[nH]c1=O`, the Potency was inconclusive: 89.1 µM [inhibitor, partial curve, poor fit].
With `COc1ccc(C(CNC(=O)C(C)c2ccc3cc(OC)ccc3c2)N(C)C)cc1` (stereo not drawn) the Potency was inconclusive: 89.1 µM [inhibitor, single point].
In the case of `CC1(C(=O)OCC(=O)Nc2ncc(Cl)cc2Cl)CC1(Cl)Cl` (stereo not drawn), the Potency is reported as inconclusive: 56.2 µM [inhibitor, partial curve, poor fit].
With `O=C(CC1C(=O)N(c2ccccc2)C(=O)N1CCC1=CCCCC1)Nc1ccc(F)cc1` (stereo not drawn) the “activity, negative = inhibition” value was inactive: 13.7%.
`CCCCn1c(N)c(N(CC(C)C)C(=O)CCCn2c(=O)oc3ccccc32)c(=O)[nH]c1=O` was tested, and the Potency was inconclusive: 10 µM [inhibitor, partial curve, poor fit].
In the case of `COc1cc(-c2nc(S(=O)(=O)c3ccc(Cl)cc3)c(N(C)C)o2)cc(OC)c1OC`, the Potency is reported as inconclusive: 39.8 µM [inhibitor, single point].
`COc1ccc(-c2c3c(=O)n(C)c(=O)n(C)c3cn2-c2cccc(OC)c2)cc1` was tested, and the Potency was inconclusive: 1.41 µM [inhibitor, partial curve].
In the case of `CCCCn1c(N)c(N(CCC(C)C)C(=O)C2CCCO2)c(=O)[nH]c1=O` (stereo not drawn), the “activity, negative = inhibition” value is reported as inactive: -22.3% [at 102 µM].
In the case of `Cc1cccc(C)c1NC(=O)C1c2cccc[n+]2CC(=O)N1Cc1cccs1` (stereo not drawn), the Potency is reported as active: 50.1 µM.
`CCOc1ccccc1NC(=O)CSc1nc(N)c(C#N)cc1C#N` was tested, and the Potency was inconclusive: 50.1 µM [inhibitor, partial curve].
`Cc1noc(C)c1-c1nc(N2CCN(C)CC2)c2ccccc2n1` was tested, and the activity, negative = inhibition was inactive: -0.409% [at 0.501 µM].
With `CCc1ccc(C(=O)c2cn(CC(=O)Nc3ccc(F)cc3)c3ccc(OC)cc3c2=O)cc1` the Potency was inconclusive: 10 µM [inhibitor, partial curve, poor fit].
`CCOc1ccc(NC(=O)N2CCN(S(=O)(=O)c3ccc4c(ccn4C)c3)CC2)cc1` was tested, and the “activity, negative = inhibition” value was inactive: -18.6%.
In the case of `Cc1cccc(-n2c(N)cc(=O)nc2SCC(=O)Nc2nnc(C)s2)c1`, the Potency is reported as inconclusive: 50.1 µM [inhibitor, partial curve].
With `COc1ccccc1N(CC(=O)NCCSCc1ccccc1)S(=O)(=O)c1ccc(C)cc1` the Potency was inconclusive: 4.47 µM [inhibitor, full curve, poor fit].
`CCn1cc(C(=O)Nc2cccc(C(=O)OC)c2)c(=O)c2ccc(C)nc21` was tested, and the Potency was inconclusive: 0.316 µM [inhibitor, full curve, poor fit].
In the case of `COc1ccc(/C(C)=N/Nc2cccc(C(=O)O)c2)cc1OC`, the Potency is reported as active: 1.41 µM.
With `O=C(NCc1ccc2c(c1)OCO2)Nc1ccc2nsnc2c1` the “activity, negative = inhibition” value was inactive: 4.49% [at 102 µM].
For `Cc1ccc(NC(=O)Cc2ccc(-n3c(C)nc4cccnc43)cc2)cc1C`, the “activity, negative = inhibition” value was inactive: -31.9%.
For `Cc1cc(C)c(NC(=O)C(C)n2nc(-c3ccc(C)c(C)c3)ccc2=O)c(C)c1` (stereo not drawn), the “activity, negative = inhibition” value was inactive: -16.1%.
